In the supplement of paper PMC9446081:
Screen size: about 39,000 compounds; about 220 (0.56%) showed activity. The list shows a part of the results.

tested on: Escherichia coli K-12 BW25113; experiment: relative growth (OD600 normalised to plate interquartile mean) (fraction); higher = less growth inhibition, active = 0.2 or less; conditions: 50 µM; LB; incubation time: overnight (16-24 h)
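Further: static incubation at 37 °C against the wild-type strain, values averaged over two biological replicates.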

SMILES | relative growth
Cc1cc(C(=O)Nc2cccc3c2O[C@@H](CN(C)C(=O)NC(C)C)[C@@H](C)CN([C@@H](C)CO)C3=O)n(C)n1 | inactive: 1.01
C[C@@H]1CN([C@@H](C)CO)C(=O)c2cc(NS(=O)(=O)c3cccs3)ccc2O[C@@H](C)CCCCO[C@@H]1CN(C)Cc1ccc2c(c1)OCO2 | inactive: 1
COc1ccc(CN(C)C[C@@H]2Oc3ccc(NC(=O)Nc4cccc5ccccc45)cc3CC(=O)N([C@H](C)CO)C[C@H]2C)cc1 | inactive: 0.994
CC(=O)N1CCO[C@H]2CN(S(=O)(=O)c3cccnc3)C[C@@H]2C1 | inactive: 0.994
COc1ccc(S(=O)(=O)N(C)C[C@H]2Oc3c(NC(=O)C4CC4)cccc3C(=O)N([C@@H](C)CO)C[C@@H]2C)cc1 | inactive: 0.993
C[C@H]1CCCCO[C@@H](CN(C)C(=O)NC2CCCCC2)[C@@H](C)CN([C@@H](C)CO)C(=O)c2cc(NS(=O)(=O)c3ccc(F)cc3)ccc2O1 | inactive: 0.999
C[C@H]1CN([C@@H](C)CO)C(=O)c2cccc(NC(=O)c3cnccn3)c2O[C@@H]1CN(C)C(=O)Nc1ccc2c(c1)OCO2 | inactive: 0.976
C[C@@H]1CN([C@H](C)CO)C(=O)Cc2cc(NC(=O)CCN3CCOCC3)ccc2O[C@H]1CN(C)Cc1ccc2c(c1)OCO2 | inactive: 0.994
COc1ccccc1-c1cccc(-c2nc(C(=O)Nc3nccs3)cc3c2[C@@H](CCO)N(C(=O)CC2CC2)C3)c1 | inactive: 1.03
Cc1ccc(S(=O)(=O)N2C[C@@H](O)COC[C@H]3O[C@H](CC(=O)NCc4ccc(Cl)cc4)CC[C@@H]32)cc1 | inactive: 0.977
COCC#Cc1ccc2c(c1)O[C@H](CN(C)S(=O)(=O)c1ccc(C)cc1)[C@@H](C)CN([C@@H](C)CO)S2(=O)=O | inactive: 1.02
COc1ccc2c3c([nH]c2c1)[C@@H](CO)N(C[C@]13CCN(CC1)C(=O)CN(C)C)S(=O)(=O)C | inactive: 0.983
C[C@@H]1CN([C@@H](C)CO)C(=O)c2cc(NC(=O)Nc3cccc4ccccc34)ccc2O[C@H]1CN(C)Cc1ccc(C(F)(F)F)cc1 | inactive: 1.03
C[C@@H]1CCCCO[C@H](CN(C)C(=O)NC2CCCCC2)[C@H](C)CN([C@@H](C)CO)C(=O)c2cc(NC(=O)Nc3ccc4c(c3)OCO4)ccc2O1 | inactive: 0.991
C[C@@H]1CN([C@@H](C)CO)C(=O)c2cccc(NS(C)(=O)=O)c2O[C@H]1CN(C)S(=O)(=O)c1cn(C)cn1 | inactive: 0.977
C[C@H](CO)N1C[C@H](C)[C@@H](CN(C)Cc2ccc(C(=O)O)cc2)Oc2ccc(NS(=O)(=O)c3cn(C)cn3)cc2CC1=O | inactive: 1.02
